Test results as given in PubChem BioAssay (NCATS).
Values joined by “and” are separate entries in the source; they are usually repeats but may differ in a detail not shown here. Equal entries are not always repeated. This list was built around the results that the source calls inconclusive (neither active nor inactive); the mix of calls is not that of the screen. For some of these results: Where the call is inconclusive, the potency comes from a doubtful curve fit. Active and inactive are the calls of the source. Calls come from the whole dose curve; as a rule, active = well fitted curve in the direction sought with a large enough effect; inconclusive = small, poorly fitted or top-dose-only effect, or another doubt; inactive = no such curve, though single readings can be large; an effect the other way counts as inactive or inconclusive.

Key:
[1] = Viability qHTS for spleen associated tyrosine kinase inhibitor (SYKi) naive MV4-11 cells (AID 1963823); conditions: MV4-11 AML viability, CellTiter-Glo luminescence, 72 h; viability (% of control): at 45 µM (top of the series); note: nearly all actives have a fitted effect of over 40% in size
In short: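 qHTS, SYK inhibitor-naive MV4-11; 500 cells/well; 72 hr compound exposure, 37 C; CellTiter-Glo added, 10 min RT; luminescence read.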

[2] = Quantitative highthroughput screen to assess conditional lethalithy of NOMO1 cells grown in RPMI1640 with untreated serum (RPMI+s) (AID 1963876); conditions: NOMO1 AML cells in RPMI+serum, CellTiter-Glo viability, 48 h; viability: at 45.8 µM (top of the series); note: nearly all actives have a fitted effect of over 35% in size;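 for Viability: 100% = DMSO wells and 0% = empty wells without cells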
In short: (§1)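 Each medium arm—HPLM with 10% dialyzed FBS, or RPMI1640 with 5 mM glucose and 10% untreated or dialyzed FBS—was screened against an 11-point, 3-fold compound titration for 48 h at 37 °C, with CellTiter-Glo luminescence as endpoint.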

[3] = Quantitative highthroughput screen to assess conditional lethalithy of NOMO1 cells grown in RPMI1640 with dialyzed fetal bovine serum (RPMI+ds) (AID 1963877); conditions: NOMO1 in RPMI+dialyzed FBS viability, ATP luminescence, 48 h; series mostly up to 45.8 µM; note: nearly all actives have a fitted effect of over 30% in size;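 for Viability: 100% = DMSO control wells and 0% = empty wells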
In short: as §1

[4] = Quantitative highthroughput screen to assess conditional lethalithy of NOMO1 cells grown in Human Plasma-Like Medium with dialyzed fetal bovine serum (HPLM+ds) (AID 1963878); conditions: NOMO1 AML cells in HPLM+ds, CellTiter-Glo viability, 48 h; viability: at 45.8 µM (top of the series); note: nearly all actives have a fitted effect of over 35% in size;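 for Viability: 100% = DMSO wells and 0% = empty wells on each plate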
In short: as §1

[5] = Quantitative highthroughput screen to assess conditional lethalithy of P12 Ichikawa cells grown in RPMI1640 with dialyzed fetal bovine serum (RPMI+ds) (AID 1963880); conditions: ATP luminescence, 48 h; Potency: P12-Ichikawa viability; series mostly up to 45.8 µM; note: nearly all actives have a fitted effect of over 35% in size
In short: as §1

[6] = Quantitative highthroughput screen to assess conditional lethalithy of P12 Ichikawa cells grown in RPMI1640 with untreated serum (RPMI+s) (AID 1963881); conditions: ATP luminescence, 48 h; Potency: viability; series mostly up to 45.8 µM; note: nearly all actives have a fitted effect of over 35% in size;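 for Viability: 100% = DMSO wells and 0% = empty wells without cells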
In short: as §1

[7] = Quantitative highthroughput screen to assess conditional lethalithy of SEM cells grown in RPMI1640 with unreated serum (RPMI+s) (AID 1963883); conditions: SEM B-ALL cells, CellTiter-Glo viability, 48 h; viability: at 45.8 µM (top of the series); note: nearly all actives have a fitted effect of over 35% in size;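 for Viability: 100% = DMSO wells and 0% = empty wells without cells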
In short: as §1

[8] = Quantitative highthroughput screen to assess conditional lethalithy of SEM cells grown in RPMI1640 with dialyzed fetal bovine serum (RPMI+ds) (AID 1963884); conditions: SEM B-ALL cells, RPMI+dialyzed FBS, CellTiter-Glo viability, 48 h; viability: at 45.8 µM (top of the series); note: nearly all actives have a fitted effect of over 35% in size;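 for Viability: 100% = DMSO control wells and 0% = empty wells without cells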
In short: as §1

[9] = Cellular viability qHTS for adrenocortical cancer (ACC) cell line SW-13 (AID 1963989); conditions: SW-13 ACC cells viability, CellTiter-Glo, 48 h; activity (max response): stronger effect = lower value; note: nearly all actives have a fitted effect of over 65% in size;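 for activity (max response): cells grown in serum-free medium with ITS supplement; % is set by controls: 0 for no effect and ±100 for the full control effect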
In short: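 48 h treatment, SW-13 in ITS/DMEM serum-free; doses up to 46 uM; readout CellTiter-Glo luminescence; curve fit four-parameter logistic.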

[10] = Quantitative highthroughput screen to assess conditional lethalithy of P12 Ichikawa cells grown in Human Plasma-Like Medium with dialyzed fetal bovine serum (HPLM+ds) (AID 1963879); conditions: ATP luminescence, 48 h; Potency: viability; series mostly up to 45.8 µM; note: nearly all actives have a fitted effect of over 35% in size
In short: as §1

[11] = Quantitative highthroughput screen to assess conditional lethalithy of SEM cells grown in Human Plasma-Like Medium with dialyzed fetal bovine serum (HPLM+ds) (AID 1963882); conditions: SEM B-ALL cells in HPLM+ds, CellTiter-Glo viability, 48 h; series mostly up to 45.8 µM; note: nearly all actives have a fitted effect of over 35% in size
In short: as §1

[12] = Cellular viability qHTS for adrenocortical cancer (ACC) cell line NCI-H295R (AID 1963990); conditions: CellTiter-Glo ATP luminescence, 48 h; activity change, negative = viability loss: at 46.1 µM (top of the series); note: nearly all actives have a fitted effect of over 60% in size
In short: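 Compound titrations (up to 46 uM final) are applied to NCI-H295R cultures for 48 h at 37C. Viable cell number is estimated by CellTiter-Glo signal, normalised to DMSO and doxorubicin controls.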
Potency is the fitted concentration of half-maximal effect; tags give direction and shape of the fitted curve.

| SMILES | Potency [1] | Potency [2] | Potency [3] | Potency [4] | Potency [5] | Potency [6] | Potency [7] | Potency [8] | Potency [9] | Potency [10] | activity (max response) [9] | viability [6] | Potency [11] | Potency [12] |
| --- | --- | --- | --- | --- | --- | --- | --- | --- | --- | --- | --- | --- | --- | --- |
| COC1=C(OC)C(=O)C(CCCCCCCCCCO)=C(C)C1=O | active: 10.6 µM and inconclusive: 14.8 µM [cytotoxic, partial curve] | inconclusive: 37.2 µM [cytotoxic, single point] | inconclusive: 23.5 µM [cytotoxic, single point] | inconclusive: 20.9 µM [cytotoxic, partial curve, poor fit] | inconclusive: 18.7 µM [cytotoxic, partial curve] | inconclusive: 18.7 µM [cytotoxic, partial curve] | inactive | inconclusive: 14.8 µM [cytotoxic, partial curve] | active: 4.11 µM and active: 25.1 µM | – | – | – | – | – |
| CC(C[N+](C)(C)C)OC(N)=O (centres undefined) | inactive | inactive | inactive | inactive | – | – | – | inactive | – | inactive | inactive: 2.28% and inactive: -2.17% | – | – | – |
| COc1ccc(CC2c3cc(OC)c(OC)cc3CC[N+]2(C)CCC(=O)OCCCCCOC(=O)CC[N+]2(C)CCc3cc(OC)c(OC)cc3C2Cc2ccc(OC)c(OC)c2)cc1OC (centres undefined) | inconclusive: 20.9 µM [cytotoxic, partial curve] | active: 3.68 µM | active: 4.63 µM | active: 1.64 µM | – | – | inconclusive: 1.64 µM [cytotoxic, single point] | inconclusive: 1.31 µM [cytotoxic, single point] | – | – | – | inactive: 89.9% [at 5.15 µM] | inconclusive: 1.64 µM [cytotoxic, single point] | inconclusive: 28.2 µM [cytotoxic, partial curve] |
| O=C1c2c(O)ccc(O)c2C(=O)c2c(NCCNCCO)ccc(NCCNCCO)c21 | inconclusive: 66.8 nM [cytotoxic, full curve] and inconclusive: 23.5 nM [cytotoxic, full curve] | inconclusive: 0.332 µM [cytotoxic, full curve, poor fit] | inconclusive: 0.469 µM [cytotoxic, full curve, poor fit] | inconclusive: 0.372 µM [cytotoxic, full curve, poor fit] | active: 0.332 µM | – | active: 0.235 µM | active: 0.332 µM | – | active: 0.296 µM | – | – | – | active: 4.11 µM and active: 3.98 µM |
| CC(C)C(=O)Nc1ccc([N+](=O)[O-])c(C(F)(F)F)c1 | inconclusive: 21.1 µM [cytotoxic, partial curve] and inconclusive: 18.6 µM [cytotoxic, partial curve] | inconclusive: 0.332 µM [cytotoxic, full curve] | inconclusive: 0.372 µM [cytotoxic, full curve] | inconclusive: 0.332 µM [cytotoxic, full curve] | – | – | inactive | – | inconclusive: 31.6 µM [cytotoxic, single point] | active: 1.87 µM | – | – | inactive | – |
| CCN(CC)CCCCNc1ncc2cc(-c3cc(OC)cc(OC)c3)c(NC(=O)NC(C)(C)C)nc2n1 | active: 5.8 µM and active: 8.33 µM | inconclusive: 20.9 µM [cytotoxic, partial curve] | inconclusive: 18.7 µM [cytotoxic, partial curve] | inconclusive: 20.9 µM [cytotoxic, partial curve] | inconclusive: 13.2 µM [cytotoxic, partial curve] | inconclusive: 6.62 µM [cytotoxic, partial curve] | – | inconclusive: 14.8 µM [cytotoxic, partial curve] | – | – | – | – | active: 14.8 µM | – |
| Oc1c(Cl)cc(Cl)c2cccnc12 | active: 5.25 µM | inactive | inconclusive: 26.4 µM [cytotoxic, single point] | inactive | inconclusive: 26.4 µM [cytotoxic, single point] | inconclusive: 20.9 µM [cytotoxic, partial curve] | – | – | – | – | – | – | active: 16.6 µM | – |
| COc1ccc(CCN(C)CCCOc2ccc(S(=O)(=O)c3[nH]c4ccccc4c3C(C)C)cc2)cc1OC | active: 7.42 µM | inconclusive: 33.2 µM [cytotoxic, single point] | inconclusive: 33.2 µM [cytotoxic, single point] | inconclusive: 29.6 µM [cytotoxic, single point] | inconclusive: 37.2 µM [cytotoxic, single point] | inconclusive: 26.4 µM [cytotoxic, single point] | inconclusive: 37.2 µM [cytotoxic, single point] | – | – | – | – | – | – | – |
